The text below walks through data of the supplement of paper PMC7826260.

The other results are listed elsewhere or left out. Cleavage of a single-stranded DNA pool by Rep nickase domains was read by sequencing at 3 µM enzyme and 37 °C for 1 h; the strands have 90 letters, of which the middle is given. A value is the log2 ratio of uncut reads to the pool without enzyme; more negative means more cut, near 0 not cut, and no call is made. Reads are scaled to the total; where an enzyme cuts many sequences, the uncut ones exceed 0.

Holding throughout (test): uncleaved DNA left, log2 of reads against the no-enzyme library (log2 ratio); higher = less cleavage (more negative = more Rep cleavage of the k-mer); sequences stand for … in CTCGTCCG…ACCGGAGA
Assay [1] deals with T1, Rep nickase domain of Muscovy duck circovirus.
T1 sequence (Rep 1-111, printed without the tag): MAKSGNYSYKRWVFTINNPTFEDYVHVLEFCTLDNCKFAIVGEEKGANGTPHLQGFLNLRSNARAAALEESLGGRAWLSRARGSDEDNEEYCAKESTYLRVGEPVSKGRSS
As to the method:
(§1)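 A pool of 90-nt single-stranded DNAs with seven random bases just before the constant AC of the nick site (name = the seven bases) was cut by 3 µM recombinant His6-SUMO-tagged Rep nickase domain (300 nM DNA, 50 mM HEPES pH 8.0, 50 mM NaCl, 1 mM MnCl2, 1 h, 37 °C, three replicates). Uncut DNA was amplified and sequenced.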

In assay [2] the test system is T2, Rep nickase domain of banana bunchy top virus.
T2 sequence (Rep 1-94, printed without the tag): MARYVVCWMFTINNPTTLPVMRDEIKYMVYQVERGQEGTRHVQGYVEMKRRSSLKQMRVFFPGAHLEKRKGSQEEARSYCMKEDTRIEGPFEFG
As to the method:
as §1

The test system of assay [3] is T3, Rep nickase domain of cabbage leaf curl virus.
T3 sequence (Rep 1-116, printed without the tag): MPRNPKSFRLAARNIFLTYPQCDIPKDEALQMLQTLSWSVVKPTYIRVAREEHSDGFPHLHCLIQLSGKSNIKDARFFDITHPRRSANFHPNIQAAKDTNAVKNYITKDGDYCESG
As to the method: as §1
The subject of assay [4] is T4, Rep nickase domain of chickpea chlorotic dwarf virus.
T4 sequence (Rep 1-124, printed without the tag): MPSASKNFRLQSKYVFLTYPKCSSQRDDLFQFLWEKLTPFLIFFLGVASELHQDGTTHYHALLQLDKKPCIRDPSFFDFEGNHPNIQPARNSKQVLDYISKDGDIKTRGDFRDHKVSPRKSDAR
As to the method: as §1
Assay [5] deals with T5, Rep nickase domain of faba bean necrotic yellows virus.
T5 sequence (Rep 1-98, printed without the tag): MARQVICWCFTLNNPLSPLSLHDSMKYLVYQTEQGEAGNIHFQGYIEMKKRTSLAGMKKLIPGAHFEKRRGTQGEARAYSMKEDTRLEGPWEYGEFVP
As to the method: as §1
Assay [6] deals with T6, Rep nickase domain of maize striate mosaic virus.
T6 sequence (Rep 1-117, printed without the tag): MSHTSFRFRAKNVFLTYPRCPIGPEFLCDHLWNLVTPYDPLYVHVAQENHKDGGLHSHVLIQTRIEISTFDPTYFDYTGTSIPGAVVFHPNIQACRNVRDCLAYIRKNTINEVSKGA
As to the method:
as §1

The subject of assay [7] is T7, Rep nickase domain of porcine circovirus 2.
T7 sequence (Rep 2-116, printed without the tag): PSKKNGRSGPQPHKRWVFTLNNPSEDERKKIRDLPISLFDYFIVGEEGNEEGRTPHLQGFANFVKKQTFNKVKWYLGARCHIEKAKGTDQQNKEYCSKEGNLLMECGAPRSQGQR
As to the method: as §1
For assay [8], the system named is T8, Rep nickase domain of tomato golden mosaic virus.
T8 sequence (Rep 1-124, printed without the tag): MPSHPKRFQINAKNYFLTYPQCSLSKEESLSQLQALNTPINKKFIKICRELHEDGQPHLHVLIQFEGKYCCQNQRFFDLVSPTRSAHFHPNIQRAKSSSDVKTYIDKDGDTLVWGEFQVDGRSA
As to the method:
as §1

The test system of assay [9] is T9, Rep nickase domain of tomato yellow leaf curl virus.
T9 sequence (Rep 1-136, printed without the tag): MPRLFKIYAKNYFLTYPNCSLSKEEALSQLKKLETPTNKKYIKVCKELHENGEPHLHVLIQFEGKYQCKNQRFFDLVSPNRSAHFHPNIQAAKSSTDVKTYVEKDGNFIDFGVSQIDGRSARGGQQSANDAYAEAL
As to the method: as §1
In assay [10] the test system is T10, Rep nickase domain of wheat dwarf virus.
T10 sequence (Rep 1-137, printed without the tag): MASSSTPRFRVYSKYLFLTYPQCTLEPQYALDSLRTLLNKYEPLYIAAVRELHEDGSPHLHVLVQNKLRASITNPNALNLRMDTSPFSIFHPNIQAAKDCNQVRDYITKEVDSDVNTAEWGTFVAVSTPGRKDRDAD
As to the method: as §1

Take GACGAGC: the “uncleaved DNA left (log2)” value was found to be 0.251 in [1]; 0.163 in assay [2]; 0.483 in assay [3]; 1.29 in assay [4]; 0.228 in assay [5]; 0.888 in assay [6]. Moreover, the “uncleaved DNA left (log2)” value in [7] worked out at 0.23; in assay [8], 0.315; in assay [9], 0.225; in assay [10], 0.292.
With TGGAATT, the “uncleaved DNA left (log2)” value is 0.102 in assay [1]; -0.0125 in assay [2]; 0.634 in [3]; 0.689 in assay [4]; -0.0207 in assay [5]; 1.93 in [6]. The “uncleaved DNA left (log2)” value in assay [7] is -0.371; in assay [8] it was -0.056; in assay [9], 0.0594; in assay [10] it was 0.288.
As to CTGAGAA, the “uncleaved DNA left (log2)” value in assay [1] was 0.102; in assay [2] it was 0.014; in assay [3], 0.0579; in assay [4], 0.13; in [5], 0.0787; in [6] it was -0.361. The “uncleaved DNA left (log2)” value in [7] was 0.0986; in assay [8] it was 0.0341; in assay [9] it was -0.00543; in [10] it was 0.0422.
Turning to ATACACA, the “uncleaved DNA left (log2)” value in assay [1] was -0.0708; in assay [2] it was -0.0556; in assay [3], -0.138; in assay [4], -0.913; in [5], 0.011; in [6], -0.51. Also, the “uncleaved DNA left (log2)” value is 0.0491 in [7], 0.132 in [8], 0.0122 in assay [9] and 0.00976 in assay [10].
Turning to ACGTAAA, the “uncleaved DNA left (log2)” value was 0.0875 in assay [1]; 0.0949 in assay [2]; -0.135 in assay [3]; 0.0994 in assay [4]; 0.097 in [5]; -0.599 in assay [6]. For the same sequence, the “uncleaved DNA left (log2)” value is -0.00763 in [7], 0.0512 in [8], -0.0988 in assay [9] and -0.0349 in [10].
CGGTTTA: the “uncleaved DNA left (log2)” value in [1] was -0.0521; in assay [2], 0.0489; in assay [3] it was 0.0265; in assay [4], -0.0348; in assay [5] it was -0.0843; in [6], 0.617. For the same sequence, the “uncleaved DNA left (log2)” value in assay [7] was -0.1; in assay [8] it was -0.048; in assay [9] it was 0.038; in assay [10], 0.014.
TCACTTA: the “uncleaved DNA left (log2)” value in assay [1] was 0.0548; in assay [2], -0.042; in [3], 0.0011; in [4], -1.32; in assay [5], -0.119; in assay [6], -0.464. For the same sequence, the “uncleaved DNA left (log2)” value in [7] is -0.162; in [8] it was -0.0338; in assay [9], 0.0848; in assay [10] it was 0.00294.
For the sequence ATTGTTG, the “uncleaved DNA left (log2)” value is 0.149 in assay [1]; 0.104 in assay [2]; -0.71 in assay [3]; -0.313 in [4]; 0.193 in assay [5]; -1.18 in assay [6]. Further, the “uncleaved DNA left (log2)” value in assay [7] is 0.167; in assay [8], 0.0129; in assay [9] it was 0.113; in assay [10], 0.00971.
In the case of ATTCTAA, the “uncleaved DNA left (log2)” value in assay [1] was -0.0962; in [2], -0.109; in assay [3] it was -0.0672; in assay [4], -0.329; in assay [5], -0.0441; in [6] it was -0.548. For the same sequence, the “uncleaved DNA left (log2)” value in assay [7] is -0.0072; in assay [8], 0.0246; in assay [9], -0.00489; in assay [10] it was -0.186.
Regarding GCCCCAT, the “uncleaved DNA left (log2)” value in assay [1] was -0.0711; in [2], 0.073; in assay [3], 0.226; in assay [4], 0.392; in assay [5], -0.00179; in assay [6], 0.616. Also, the “uncleaved DNA left (log2)” value was -0.0276 in [7], -0.0929 in assay [8], 0.0396 in [9] and 0.0594 in assay [10].
In the case of CGACGCA, the “uncleaved DNA left (log2)” value was 0.0727 in assay [1]; 0.0773 in assay [2]; 0.00882 in assay [3]; 0.771 in [4]; -0.0346 in [5]; 1.56 in assay [6]. The “uncleaved DNA left (log2)” value in assay [7] was 0.0102; in assay [8], -0.00442; in [9], 0.0124; in assay [10] it was 0.148.
For the sequence CCGGGTG, the “uncleaved DNA left (log2)” value in assay [1] is 0.0654; in assay [2], 0.0483; in [3] it was -0.0601; in assay [4], 0.216; in assay [5] it was -0.113; in assay [6], 0.235. The “uncleaved DNA left (log2)” value in assay [7] was 0.0591; in assay [8], 0.0958; in assay [9] it was -0.102; in assay [10], -0.0362.
As for GTAAATG, the “uncleaved DNA left (log2)” value is 0.116 in assay [1]; 0.0746 in [2]; -0.0223 in assay [3]; 0.27 in [4]; 0.0212 in assay [5]; -0.0774 in assay [6]. The “uncleaved DNA left (log2)” value turned out to be 0.124 in assay [7], 0.0629 in assay [8], 0.102 in assay [9] and 0.153 in assay [10].
As to CAAACAG, the “uncleaved DNA left (log2)” value in [1] was 0.169; in assay [2], 0.177; in assay [3], -0.67; in assay [4], -0.603; in [5], 0.145; in assay [6], -0.993. Also, the “uncleaved DNA left (log2)” value was 0.28 in [7], 0.0873 in assay [8], 0.138 in assay [9] and 0.0245 in assay [10].
As to GGGCTGG, the “uncleaved DNA left (log2)” value in assay [1] is 0.0439; in assay [2], -0.0503; in assay [3], 0.656; in [4], 1.64; in assay [5] it was 0.034; in [6], 2.05. The “uncleaved DNA left (log2)” value was 0.216 in assay [7], 0.105 in [8], -0.0302 in [9] and 0.15 in assay [10].
